Test results published in the supplement of paper PMC5499739.
Whole data set: some 16,000 sequences, median “Z-score” near -0.37, cut for the highest 2% near 3.2. Some of the results follow.

System: RBM10 RRM1-ZnF (GST-tagged construct)
Assay: RNAcompete 7-mer binding Z-score; higher = stronger binding preference
Summary of the method: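 A one-sided Z-score for enrichment, taken across the probes containing each heptamer motif, was assigned to every such motif. The RNA came from a designed pool of 241 399 sequences up to 41 nt (1.5 nmol), bound by 20 pmol of GST-tagged RBM10 constructs in 1 ml Hepes pH 7.8 buffer with glutathione Sepharose beads for 30 min at 4°C. Four 2-min washes at 4°C preceded identification of bound RNA by microarray hybridisation.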

| Sequence | RNAcompete 7-mer binding Z-score |
| --- | --- |
| CGGGAAG | 2.18 |
| GCCAGGA | 0.436 |
| UGAAGAA | 0.228 |
| GUGUGAG | 1.95 |
| UUCUCGU | -0.737 |
| CCACCCA | -0.327 |
| GAAAUAC | -0.327 |
| GGCUUAU | -0.344 |
| GUCCUCG | -0.493 |
| UGCCCCA | -0.503 |
| AUGAUAA | -0.119 |
| GGUAAUU | 0.729 |
| AGACGAG | 0.826 |
| UUGCACA | -0.707 |
| UUUAACA | -0.539 |
| GCGUGGC | 1.12 |
| UCCUACU | -0.837 |
| CAGAGGA | 1.41 |
| UGACCUA | -0.776 |
| GCGUCCG | -0.558 |
| GCCGAUU | -0.737 |
| CUGCACG | -0.522 |
| CUAGUCU | -0.743 |

| Sequence | RNAcompete 7-mer binding Z-score |
| --- | --- |
| GGCGAAU | 0.703 |
| UCUACCC | -0.743 |
| UCAGCAU | -0.23 |
| GCGGAUU | 0.794 |
| UGUCUAA | -0.707 |
| UGUUUGA | -0.116 |
| UGUAGUG | 0.748 |
| ACUUUCG | -0.854 |
| AAGCUAU | -0.535 |
| CCACAUC | -0.659 |
| AGGCCGU | -0.574 |
| AAGAUCA | -0.181 |
| AGAGAGC | 0.248 |
| AUCCACU | -0.668 |
| CCAAAAA | -0.795 |
| ACGUGUG | 0.527 |
| CGGAUAU | 0.517 |
| UUGGCAA | 0.14 |
| UCUCACU | -0.646 |
| ACCCAUU | -0.951 |
| AAGCCGC | -0.539 |
| CGACGCG | -0.0739 |
| GAGUUGC | 0.192 |

| Sequence | RNAcompete 7-mer binding Z-score |
| --- | --- |
| CGGACAC | -0.0285 |
| UAAGCCC | -0.779 |
| CAGGCCC | -0.548 |
| GGCCUGU | -0.379 |
| GGUCGAG | 1.67 |
| UUCAAGC | -0.753 |
| UUGAUUG | -0.0447 |
| CACGGAA | 0.683 |
| GGCUAGA | 0.618 |
| GCACACG | -0.0707 |
| UAGCGGG | 2.33 |
| CAUGCUG | -0.454 |
| AAUUACU | -0.535 |
| UCGUAAA | -0.707 |
| GUCUGGG | 1.42 |
| GUCGGCC | -0.49 |
| UUAUAAC | -0.704 |
| GGUUCAA | 0.202 |
| CAAGACG | -0.207 |
| AUAUAGA | -0.145 |
| CGUAUAG | -0.132 |
| CAGUUAC | -0.347 |
| GUCGCAG | -0.035 |

| Sequence | RNAcompete 7-mer binding Z-score |
| --- | --- |
| AGCACGG | 0.949 |
| AGCGGCU | 0.186 |
| CGCACUG | -0.379 |
| CAUCGCG | -0.396 |
| CCCCGCU | -0.444 |
| GGGAGUU | 2.08 |
| AAGCUCU | -0.733 |
| ACACAAC | -0.607 |
| GGGCGCA | 1.42 |
| UCAUCAG | -0.565 |
| CGGGUGA | 2.66 |
| GCUGUCG | -0.373 |
| GUACGCC | -0.214 |
| AUGGUAG | 2.74 |
| CACAAAU | -0.652 |
| AAGUUUU | -0.444 |
| AGUCGUG | 0.124 |
| AAGAGGU | 1.55 |
| CUGGAUA | 0.436 |
| CAUUUGC | -0.932 |
| CGUUUAC | -0.733 |
| CCUUGCU | -0.906 |
| GCUGCAA | -0.184 |

| Sequence | RNAcompete 7-mer binding Z-score |
| --- | --- |
| UACCUAC | -0.724 |
| CCAGCGC | -0.422 |
| CGUUGAG | -0.0512 |
| GAGGUGA | 2.56 |
| GCGCCCA | -0.655 |
| CCCGACG | -0.0902 |
| CCCGGGC | -0.0479 |
| GCUUGUA | -0.571 |
| GGAAAUU | 0.709 |
| CAGAUAA | -0.269 |
| AGCCACU | -0.727 |
| UGGAAGC | 1.67 |
| GUCGGUG | 1.47 |
| AGAUUUU | -0.594 |
| CCUUCAU | -0.896 |
| UGAGUUC | -0.451 |
| UCUUCGA | -0.834 |
| CUUGAGA | -0.506 |
| CUUCUCG | -0.678 |
| UGCAGAC | -0.314 |
| UAAAGUG | 0.17 |
| UAGCUAC | -0.591 |
| UGCCUGU | -0.698 |

| Sequence | RNAcompete 7-mer binding Z-score |
| --- | --- |
| CACGACC | -0.688 |
| GAGUGUU | 0.625 |
| AACACAC | -0.513 |
| CCCUCCU | -0.558 |
| CCAACAA | -0.73 |
| GUUUAUC | -0.513 |
| UUUAAAC | -0.876 |
| UCGGUCC | -0.613 |
| GAUAUCU | -0.548 |
| UCGAAGG | 1.03 |
| UUGUGCU | -0.392 |
| CAACACC | -0.503 |
| GAAGGUU | 2.87 |
| CACUGCA | -0.396 |
| CACGUCC | -0.617 |
| UGACGAA | 0.082 |
| UCGAGCU | -0.568 |
| GAGAGAA | 0.745 |
| GUUUCUG | -0.171 |
| AAUCACU | -0.444 |
| AAUGGCU | 0.303 |
| UGGGUCA | 1.78 |
| GGCUAGC | 0.319 |

| Sequence | RNAcompete 7-mer binding Z-score |
| --- | --- |
| GUGUCUA | -0.249 |
| AUGUCCU | -0.772 |
| GUGCCGA | 0.017 |
| UCGAUAU | -0.626 |
| GAGCAGA | 0.927 |
| AUGUUGA | -0.0674 |
| AAGAACA | 0.00729 |
| UACGGCG | -0.0187 |
| GAAGGCG | 2.14 |
| UCCAACC | -0.805 |
| CGCACAG | -0.269 |
| GAGAUCU | -0.425 |
| CCGUCGG | -0.0999 |
| GCGUCAA | -0.126 |
| UUGCGGA | 0.368 |
| AUCUUCG | -0.886 |
| UUCUGAA | -0.61 |
| UACCCCU | -0.646 |
| CUAGUAG | -0.155 |
| AUUCUAC | -0.831 |
| CUUAGGA | 0.0333 |
| GAGUGAC | 0.703 |
| CGCGUAG | -0.106 |

| Sequence | RNAcompete 7-mer binding Z-score |
| --- | --- |
| CAUCCGU | -0.73 |
| GAGCAAA | 0.361 |
| UCCCGUA | -0.678 |
| GCCAAGA | -0.428 |
| CCGCCUU | -0.769 |
| UCACGAA | -0.496 |
| CAAGUGU | -0.0382 |
| GCAGUAU | -0.113 |
| AGGUUUA | 0.426 |
| AUUUAGU | -0.415 |
| UGUAUGU | 0.069 |
| GUGUUCG | -0.23 |
| UACGCAA | -0.509 |
| UUCGCCG | -0.6 |
| CGUCGAU | -0.191 |
| AGCAAUA | -0.152 |
| AGACGAU | -0.204 |
| GGGCCCG | 0.14 |
| CGGCGGC | 0.391 |
| AUUCAGG | 0.235 |
| CAAUGUG | 0.378 |
| AAGACGU | -0.0122 |
| UCGAGCC | -0.629 |
